Our source for the GI50 and TGI values is PubChem BioAssay (NCI).

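Following 48 hours of exposure in 96-well plates, responses at five concentrations were used to interpolate endpoints linearly. Abbreviation: GI50, concentration required for 50% inhibition of growth. Definition used: TGI = concentration required for complete inhibition of growth.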

In this assay the test system is NCI-H322M lung. The assay is described as follows: NCI anticancer screen, dose series, 48 h.
`Clc1ccc(CNc2nc(SCCN3CCOCC3)nc3c2cnn3CC(Cl)c2ccc(Br)cc2)cc1` (stereo unspecified): the GI50 was over 100 µM and the TGI is over 100 µM.

With `NC(=Nc1ccc(OCCCCCCCCn2ccnn2)cc1)c1ccccc1`, the GI50 is 0.63 µM and the TGI worked out at 60.7 µM.

Regarding `O=C(Nc1ccc(-c2ccc3c(c2)NC(=O)/C3=C\c2ccc[nH]2)cc1)Nc1cccc(Cl)c1`, the GI50 is 2.98 µM and the TGI was 20.3 µM.
